Where a name gives a salt, the structure may show the parent alone. ± gives the standard deviation of the averaged measurements. In all, about 2,600 compounds were measured (“total cell number (DAPI+ nuclei) relative to DMSO vehicle control”: median about -1.4, lowest 2% from about -23 on). Some of the results follow.
System: jimpy (Plp1 jimpy) mouse iPSC-derived oligodendrocyte progenitor cells
Assay: total cell number (DAPI+ nuclei) relative to DMSO vehicle control (SDs above negative control mean); higher = more surviving cells
Conditions: 10 µM; 3 days

SMILES	total cell number
O=C(Cc1ccccc1)Nc1nnc(CCSCCc2nnc(NC(=O)Cc3ccccc3)s2)s1	-1.45
CCCNC(=O)NS(=O)(=O)c1ccc(Cl)cc1 [Chlorpropamide]	0.22 ± 1.9
CCN(CC)C(C)CN1c2ccccc2Sc2ccccc21 (stereo not drawn) [Ethopropazine hydrochloride]	-5.56
NS(=O)(=O)Cc1noc2ccccc12 [Zonisamide]	-5.35
C=CCc1ccc(O)c(-c2cc(CC=C)ccc2O)c1 [Magnolol]	-0.222
COc1ccc2c(c1)C(=O)N(CCc1ccc(S(=O)(=O)NC(=O)NC3CCCCC3)cc1)C(=O)C2(C)C [Gliquidone]	-1.71
COc1ccc([C@@H]2Sc3ccccc3N(CCN(C)C)C(=O)[C@@H]2OC(C)=O)cc1 [Diltiazem hydrochloride]	-1.43
COc1ccc([C@@H]2Sc3ccccc3N(CCN(C)C)C(=O)[C@@H]2OC(C)=O)cc1 [Diltiazem HCl]	-3.33
Cc1cn([C@H]2C[C@H](N=[N+]=[N-])[C@@H](CO)O2)c(=O)[nH]c1=O [Zidovudine]	-3.62
Cc1cn([C@H]2C[C@H](N=[N+]=[N-])[C@@H](CO)O2)c(=O)[nH]c1=O [3'-Azido-3'-deoxythymidine]	-2.72
CC(=O)c1cc([N+](=O)[O-])c(Sc2ccc(F)cc2F)s1	-5.94
C[C@H](NC[C@H](O)CP(=O)(O)Cc1ccccc1)c1ccc(Cl)c(Cl)c1	-0.806
N[C@@H](Cc1c[nH]cn1)C(=O)O [L-Histidine hydrochloride]	-0.443
Cc1c(NC(=O)OC[C@@H]2COCCN2)cn2ncnc(Nc3ccc4c(cnn4Cc4cccc(F)c4)c3)c12	-16.1
Cc1ccc2nc(NCCN)c3ncc(C)n3c2c1	-13.2
COc1ccc(C[C@H](NC(=O)[C@H](C)NC(=O)CN2CCOCC2)C(=O)N[C@@H](Cc2ccccc2)C(=O)[C@@]2(C)CO2)cc1	-12.1
CC(C[N+](C)(C)C)OC(N)=O (stereo not drawn) [Bethanechol chloride]	-0.253 ± 2.4
COc1ccc(CCc2nc3cc(-c4c(C)noc4C)ccc3n2C[C@H](C)N2CCOCC2)cc1Cl	-8.03
O=C(O)c1cc2cccc([N+](=O)[O-])c2[nH]1	0.272
CC(=O)C1=C(O)C=C2Oc3c(C(C)=O)c(O)c(C)c(O)c3C2(C)C1=O (single isomer, unassigned; (+)) [(+)-Usniacin]	0.54
CCNC(=O)c1noc(-c2cc(C(C)C)c(O)cc2O)c1-c1ccc(CN2CCOCC2)cc1	-26.3
CCCNC(C)C(=O)Nc1c(C)csc1C(=O)OC (stereo not drawn) [Articaine HCl]	-1.22
CNCc1ccc(-c2[nH]c3cc(F)cc4c3c2CCNC4=O)cc1	-5.41
